# About 14,000 (4.5%) of roughly 310,000 compounds showed an effect of 50% or more. Effects have a minus sign here. This is one part of the list. Where a SMILES comes first, the peptide text is derived from it. The star is where a group is joined. Boc = CC(C)(C)OC(=O)*
# Biological target: human ether-à-go-go-related gene (hERG) potassium channel (human, UniProt Q12809)
# Assay: primary screen, population patch clamp on CHO cells stably expressing hERG
# 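Also: peak tail current of the secondary pulse compared with the same well before compound.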
# Sequence of human ether-à-go-go-related gene (hERG) potassium channel (Q12809 whole entry, looked up): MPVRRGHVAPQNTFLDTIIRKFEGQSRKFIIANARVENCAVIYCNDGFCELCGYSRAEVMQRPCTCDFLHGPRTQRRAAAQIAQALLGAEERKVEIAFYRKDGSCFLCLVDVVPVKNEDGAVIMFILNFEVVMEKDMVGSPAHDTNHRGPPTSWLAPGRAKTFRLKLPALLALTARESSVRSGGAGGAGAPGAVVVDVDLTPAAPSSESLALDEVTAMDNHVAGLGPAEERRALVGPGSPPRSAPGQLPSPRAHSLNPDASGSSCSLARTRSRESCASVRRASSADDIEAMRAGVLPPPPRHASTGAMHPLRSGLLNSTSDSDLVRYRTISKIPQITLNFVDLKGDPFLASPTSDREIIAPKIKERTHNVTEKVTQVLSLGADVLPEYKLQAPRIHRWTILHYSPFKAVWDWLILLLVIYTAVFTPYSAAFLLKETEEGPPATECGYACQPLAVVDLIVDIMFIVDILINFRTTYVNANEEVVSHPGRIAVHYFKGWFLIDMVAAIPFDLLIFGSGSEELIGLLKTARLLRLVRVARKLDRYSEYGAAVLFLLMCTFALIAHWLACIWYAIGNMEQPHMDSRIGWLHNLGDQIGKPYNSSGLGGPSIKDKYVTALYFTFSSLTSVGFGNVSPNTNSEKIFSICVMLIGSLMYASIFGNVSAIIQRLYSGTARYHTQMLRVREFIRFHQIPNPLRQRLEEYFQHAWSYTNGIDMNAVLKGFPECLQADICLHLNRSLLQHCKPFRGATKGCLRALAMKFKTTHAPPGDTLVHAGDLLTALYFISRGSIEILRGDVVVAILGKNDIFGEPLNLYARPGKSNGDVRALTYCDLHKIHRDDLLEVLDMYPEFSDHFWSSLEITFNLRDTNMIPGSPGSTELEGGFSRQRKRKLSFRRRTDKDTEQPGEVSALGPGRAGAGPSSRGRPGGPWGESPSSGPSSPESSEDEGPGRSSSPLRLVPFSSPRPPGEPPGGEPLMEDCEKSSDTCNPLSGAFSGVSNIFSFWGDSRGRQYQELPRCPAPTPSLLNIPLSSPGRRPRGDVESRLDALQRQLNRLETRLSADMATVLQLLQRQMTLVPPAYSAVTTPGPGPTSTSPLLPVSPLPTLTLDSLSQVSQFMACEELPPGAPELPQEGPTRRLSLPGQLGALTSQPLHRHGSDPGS
row,Structure (SMILES),"hERG current change (%, negative = inhibition) at 10uM [%]"
1,Cc1cc(=O)[nH]n(CCO)c1=O,14.7
2,O=C(COc1ccccc1Br)N1CCN(C(=O)c2cccs2)CC1,-32.2
3,CC1(C)CC(=O)C2=C(C1)OC(c1ccncc1)C(C#N)=C2N (stereo not shown),-8.14
4,CCCN(CC(=O)Nc1cc(Cl)ccc1Cl)C(=O)c1ccccc1SCC(=O)N1CCCC1,-21.3
5,COc1cccc(OC)c1C(=O)Nn1c(-c2cccs2)nc2ccccc2c1=O,-6.58
6,CC1Cc2ccccc2N1C1=NS(=O)(=O)c2ccccc21 (stereo not shown),-0.394
7,COc1ccc(NC(=O)CSc2nncn2C)c([N+](=O)[O-])c1,1.55
8,N#Cc1ccc(COC(=O)c2ccccn2)cc1,-8.75
9,Cc1ccc(S(=O)(=O)NNC(=O)Nc2ccc(Cl)cc2)cc1,6.38
10,CCOc1ccccc1NC(=O)COC(=O)CC(NC(N)=O)c1ccc(Cl)cc1 (stereo not shown),-68.4
11,COCCNC(=O)c1ccccc1NC(=O)c1ccc(Cl)c(S(=O)(=O)Nc2ccc(C)cc2C)c1,-11.7
12,Cc1cc(NC(=O)c2c(-c3ccccc3Cl)noc2C)no1,5.88
13,Cc1cccc(-c2nc3ccccc3c(=O)n2NC(=O)/C=C/c2ccc([N+](=O)[O-])cc2)c1,-60.7
14,O=[N+]([O-])c1ccc(-[n+]2ccc3ccccc3c2)c([N+](=O)[O-])c1.[Cl-],-4.13
15,COC(=O)c1sccc1NC(=O)CC1C(=O)NCCN1C(=O)Nc1ccc(C(F)(F)F)cc1 (stereo not shown),5.76
16,CCCCOc1nc2ccccc2nc1C(C#N)C(=O)NC1CCCCC1 (stereo not shown),11.4
17,CC#CCNCc1ccccc1,10.7
18,Cc1cc(Br)cc(Br)c1OCC(=O)NNC(=O)Nc1ccccc1,5.27
19,CN(C)S(=O)(=O)c1ccc(N2CCCC2)c(C(=O)OCC(=O)N2CCN(c3ccccc3)CC2)c1,-12.5
20,CCCCC(=O)NC(=S)NNC(=O)CCc1ccccc1,6.18
21,CCOC(=O)c1cnc(SC2CC(=O)N(c3ccc(OC)c(OC)c3)C2=O)nc1N (stereo not shown),-10
22,Cc1ccsc1/C=C1/SC(N2CCOCC2)=NC1=O,-9.35
23,COc1cccc(/C=N/NC(=O)c2cc(C34CC5CC(CC(C5)C3)C4)[nH]n2)c1,-16.5
24,COc1ccc(-c2nn(CCC(=O)O)cc2/C=C/C(=O)O)cc1[N+](=O)[O-],5.53
25,Cc1cc(C)cc(OCC(=O)Nc2ccc(N3CCCCC3)cc2)c1,17.1
26,CC1CCN(CCc2nc3cc(NC(=O)C(C)C)ccc3n2C)CC1,-0.549
27,CCc1ccccc1NC(=O)/C(=C/c1ccco1)c1ccccc1,-14.3
28,COc1cc(/C=C(\NC(C)=O)C(=O)Nc2ccc(NC(C)=O)cc2)ccc1OC(C)=O,4.55

row,Structure (SMILES),"hERG current change (%, negative = inhibition) at 10uM [%]"
1,CN(C)CCNC(=O)C(=O)Nc1cc2c3c(c1)CCC(=O)N3CCC2,13.7
2,COc1ccc(CCN=C(N)NS(=O)(=O)c2ccc(F)cc2)cc1OC,3.82
3,Cc1ccc(S(=O)(=O)N2CCN(Cc3cc(=O)n4ccccc4n3)CC2)c(C)c1,-80.6
4,Cc1noc(C)c1C(=O)Nc1nc(-c2ccc([N+](=O)[O-])cc2)cs1,-1.58
5,CCN(CCCNC(=O)c1c(C)cc(=O)oc1C)c1ccccc1,-52.7
6,COc1ccc(/C=C2\SC(=S)N(CCCC(=O)Nc3cccc(C(=O)O)c3)C2=O)cc1OC,12.5
7,O=C(NCCc1ccccc1F)C1CCCN1S(=O)(=O)c1ccc2ccccc2c1 (stereo not shown),-23.1
8,COc1ccc(NC(C)=O)cc1C#N,19.3
9,COc1ccc(NC(=O)Nc2ccc3oc(C)nc3c2)cc1,9.73
10,CC(=O)c1ccc2noc(-c3ccccc3)c2c1,0.248
11,O=c1[nH]c(=O)n(Cc2ccco2)c2c1C(C(F)(F)F)(C(F)(F)F)N=C(CCC1CCCCC1)N2,-6.13
12,Cc1cc([N+](=O)[O-])nn1CC(=O)NC(C)c1ccccc1 (stereo not shown),18.8
13,Cl.Clc1ccc(CN2C3=NCCCN3c3ccccc32)c(Cl)c1,-66
14,CCC(C)n1nnc2c(=O)oc3ccccc3c21 (stereo not shown),-10.7
15,CCCOc1ccc(Cc2c(Cl)nc(SC)nc2OC)cc1,18.9
16,COC(=O)c1ccccc1CSc1nsc(C)c1C#N,18.4
17,COc1ccccc1-c1c(C(F)(F)F)oc2c(CN(C)C)c(O)ccc2c1=O,10.9
18,COc1cc2c(cc1OC)CN(C(=O)c1cc3ccccc3oc1=O)CC2,20
19,O=C(O)CCn1cc(C2CC(c3ccccc3)=NN2c2ccccc2)c(-c2ccccc2)n1 (stereo not shown),63.4
20,CCOc1cccc(-c2cc(C(=O)Nc3ccon3)c3ccccc3n2)c1,14.5
21,COc1ccc(C(=O)/C=C2/c3ccccc3CC(C)(C)N2C)cc1,-13.7
22,CC(C)C(NC(=O)OC(C)(C)C)C(=O)N1CCCC1C(=O)NC(Cc1ccccc1)C(N)=O (stereo not drawn) (Boc-Val-Pro-Phe-NH2; configuration not given here),-8.68
23,COc1ccc(CC2(CCc3ccncc3)C(=O)NC(=O)NC2=O)c(OC)c1,6.03
24,Cc1ccc(C)c(N2CCN(C(=O)c3csc(C)c3C)CC2)c1,-26.7
25,CC(=O)N1CCc2cc(Br)cc(S(=O)(=O)CCC(=O)N3CCN(c4ccccn4)CC3)c21,2.49
26,COC(=O)c1ccccc1S(=O)(=O)Oc1ccc(-c2ccc(C(=O)O)cc2)cc1,-11.4
27,O=C(CN(Cc1ccccc1)S(=O)(=O)c1ccccc1)N/N=C/c1ccc([N+](=O)[O-])cc1,-18.2

# — article PMC4336329 (PLoS ONE, 2015)
